Experiment [1] concerns OVCAR4. Kind of experiment: log2 surviving fraction (library drug vs vehicle, or drug + carboplatin vs carboplatin alone; relative to plate median); ovarian cancer lines: OVCAR4 is platinum-sensitive and Ov4Carbo platinum-resistant; higher = more cell survival. The conditions noted are these: library drug concentration 10 µM, 7 days.
Experiment [2] has as its system Ov4Carbo. The experiment is described as above. The conditions noted are these: library drug concentration 10 µM, 7 days.

The source of these data is the supplement of paper PMC8047034.

Structures can show the parent of a compound that is named as a salt. The list shows a part of the results. Most values come without repeats; read them as rough.

With `CCCCCCNC(=O)n1cc(F)c(=O)[nH]c1=O` [Carmofur], the log2 surviving fraction was -4.09 in experiment [1] (carboplatin co-treatment 0 µM), -8.27 in experiment [1] (carboplatin co-treatment 5 µM), -2.63 in experiment [2] (carboplatin co-treatment 0 µM) and -2.5 in experiment [2] (carboplatin co-treatment 5 µM).

Consider `CCOc1ccc2nc(S(N)(=O)=O)sc2c1` [Ethoxzolamide], for which the log2 surviving fraction in experiment [1] (carboplatin co-treatment 0 µM) turned out to be 0.91; in experiment [1] (carboplatin co-treatment 5 µM) it was 0.993; in experiment [2] (carboplatin co-treatment 0 µM), 1.94; in experiment [2] (carboplatin co-treatment 5 µM), 1.06.

Consider `O=S(=O)(O)NC1CCCCC1` [Cyclamic  acid], for which the log2 surviving fraction in experiment [1] (carboplatin co-treatment 0 µM) is -0.0496; in experiment [1] (carboplatin co-treatment 5 µM) it was 0.0879; in experiment [2] (carboplatin co-treatment 0 µM), 0.865; in experiment [2] (carboplatin co-treatment 5 µM), 0.509.

With `CCC(CC)[C@H](NC(C)=O)[C@@H]1[C@H](O)[C@@H](C(=O)O)C[C@H]1NC(=N)N` [Peramivir Trihydrate], the log2 surviving fraction is -0.939 in experiment [1] (carboplatin co-treatment 0 µM), -0.322 in experiment [1] (carboplatin co-treatment 5 µM), 0.0236 in experiment [2] (carboplatin co-treatment 0 µM) and -0.397 in experiment [2] (carboplatin co-treatment 5 µM).

On to `NC1CCN(c2c(F)cc3c(=O)c(C(=O)O)cn(C4CC4)c3c2Cl)C1` (centres undefined), for which the log2 surviving fraction in experiment [1] (carboplatin co-treatment 0 µM) was -0.595; in experiment [1] (carboplatin co-treatment 5 µM), -0.221; in experiment [2] (carboplatin co-treatment 0 µM), 1.1; in experiment [2] (carboplatin co-treatment 5 µM), 0.864.

For `CCCSc1nc(N[C@@H]2C[C@H]2c2ccc(F)c(F)c2)c2nnn([C@@H]3C[C@H](OCCO)[C@@H](O)[C@H]3O)c2n1` [Ticagrelor], the log2 surviving fraction was -0.754 in experiment [1] (carboplatin co-treatment 0 µM), -0.156 in experiment [1] (carboplatin co-treatment 5 µM), -2.14 in experiment [2] (carboplatin co-treatment 0 µM) and -3.64 in experiment [2] (carboplatin co-treatment 5 µM).

Turning to `CN[C@@H]1[C@H](O)[C@H](NC)[C@H]2O[C@@]3(O)C(=O)C[C@@H](C)O[C@H]3O[C@@H]2[C@H]1O` [Spectinomycin  hydrochloride], the log2 surviving fraction came to 0.424 in experiment [1] (carboplatin co-treatment 0 µM), 0.681 in experiment [1] (carboplatin co-treatment 5 µM), 0.861 in experiment [2] (carboplatin co-treatment 0 µM) and 0.912 in experiment [2] (carboplatin co-treatment 5 µM).

With `CN1c2ccccc2C(NCCCCCCC(=O)O)c2ccc(Cl)cc2S1(=O)=O` (centres undefined) [Tianeptine sodium], the log2 surviving fraction in experiment [1] (carboplatin co-treatment 0 µM) amounted to 1.66; in experiment [1] (carboplatin co-treatment 5 µM), 1.19; in experiment [2] (carboplatin co-treatment 0 µM), 1.78; in experiment [2] (carboplatin co-treatment 5 µM), 0.39.

Consider `CC(C)NC[C@H](O)COc1ccc(CCOCC2CC2)cc1` [Levobetaxolol HCl], for which the log2 surviving fraction in experiment [1] (carboplatin co-treatment 0 µM) was 0.434; in experiment [1] (carboplatin co-treatment 5 µM) it was -0.302; in experiment [2] (carboplatin co-treatment 0 µM), -0.265; in experiment [2] (carboplatin co-treatment 5 µM), 0.82.

`NCC(O)c1ccc(O)cc1` (racemic) [(+,-)-Octopamine HCl]: the log2 surviving fraction is 0.41 in experiment [1] (carboplatin co-treatment 0 µM), -0.0935 in experiment [1] (carboplatin co-treatment 5 µM), -0.574 in experiment [2] (carboplatin co-treatment 0 µM) and -0.439 in experiment [2] (carboplatin co-treatment 5 µM).

`CCOc1nc2cccc(C(=O)O)c2n1Cc1ccc(-c2ccccc2-c2noc(=O)[nH]2)cc1` [Azilsartan (TAK-536)]: the log2 surviving fraction in experiment [1] (carboplatin co-treatment 0 µM) was 0.779; in experiment [1] (carboplatin co-treatment 5 µM) it was 0.325; in experiment [2] (carboplatin co-treatment 0 µM) it was -0.057; in experiment [2] (carboplatin co-treatment 5 µM), -0.217.

In the case of `C1N2CN3CN1CN(C2)C3` [Methenamine (Mandelamine)], the log2 surviving fraction in experiment [1] (carboplatin co-treatment 0 µM) was -0.0965; in experiment [1] (carboplatin co-treatment 5 µM), 0.177; in experiment [2] (carboplatin co-treatment 0 µM) it was -1.41; in experiment [2] (carboplatin co-treatment 5 µM), -0.262.

With `CC(/C=C1\SC(=S)N(CC(=O)O)C1=O)=C\c1ccccc1` [Epalrestat], the log2 surviving fraction was determined as 0.151 in experiment [1] (carboplatin co-treatment 0 µM), 0.572 in experiment [1] (carboplatin co-treatment 5 µM), 0.241 in experiment [2] (carboplatin co-treatment 0 µM) and 0.477 in experiment [2] (carboplatin co-treatment 5 µM).

On to `O=C(NC(Cc1cc(=O)[nH]c2ccccc12)C(=O)O)c1ccc(Cl)cc1` (centres undefined) [Rebamipide], for which the log2 surviving fraction in experiment [1] (carboplatin co-treatment 0 µM) was -0.383; in experiment [1] (carboplatin co-treatment 5 µM), -0.454; in experiment [2] (carboplatin co-treatment 0 µM) it was 0.472; in experiment [2] (carboplatin co-treatment 5 µM), -0.919.

Turning to `CO/N=C(\C(=O)N[C@@H]1C(=O)N2C(C(=O)O)=C(Cn3ccc(=N)n3CCO)CS[C@H]12)c1csc(N)n1` [Cefoselis sulfate], the log2 surviving fraction was 1.14 in experiment [1] (carboplatin co-treatment 0 µM), 0.822 in experiment [1] (carboplatin co-treatment 5 µM), -0.0539 in experiment [2] (carboplatin co-treatment 0 µM) and 0.0585 in experiment [2] (carboplatin co-treatment 5 µM).

In the case of `O=c1oc2c(O)c(O)cc3c(=O)oc4c(O)c(O)cc1c4c23` [Ellagic acid], the log2 surviving fraction in experiment [1] (carboplatin co-treatment 0 µM) was 0.582; in experiment [1] (carboplatin co-treatment 5 µM), -0.284; in experiment [2] (carboplatin co-treatment 0 µM) it was -0.18; in experiment [2] (carboplatin co-treatment 5 µM) it was 0.241.

Regarding `O=C([O-])c1ccccc1O.[Na+]` [Sodium salicylate], the log2 surviving fraction in experiment [1] (carboplatin co-treatment 0 µM) is -0.247; in experiment [1] (carboplatin co-treatment 5 µM), 0.0637; in experiment [2] (carboplatin co-treatment 0 µM), -0.141; in experiment [2] (carboplatin co-treatment 5 µM), -0.545.

As to `CCN[C@H]1C[C@H](C)S(=O)(=O)c2sc(S(N)(=O)=O)cc21` [Dorzolamide HCL], the log2 surviving fraction is -1.01 in experiment [1] (carboplatin co-treatment 0 µM), -0.55 in experiment [1] (carboplatin co-treatment 5 µM), -1.51 in experiment [2] (carboplatin co-treatment 0 µM) and -1.09 in experiment [2] (carboplatin co-treatment 5 µM).

On to `OCCOCCN1CCN(C(c2ccccc2)c2ccc(Cl)cc2)CC1` (centres undefined) [Hydroxyzine 2HCl], for which the log2 surviving fraction in experiment [1] (carboplatin co-treatment 0 µM) was determined as 0.0471; in experiment [1] (carboplatin co-treatment 5 µM), 0.684; in experiment [2] (carboplatin co-treatment 0 µM), 0.356; in experiment [2] (carboplatin co-treatment 5 µM) it was 0.278.

Take `CN1CCN2c3ncccc3Cc3ccccc3C2C1` (centres undefined) [Mirtazapine (Remeron, Avanza)]: the log2 surviving fraction in experiment [1] (carboplatin co-treatment 0 µM) worked out at 0.74; in experiment [1] (carboplatin co-treatment 5 µM) it was 0.583; in experiment [2] (carboplatin co-treatment 0 µM) it was 0.0242; in experiment [2] (carboplatin co-treatment 5 µM), 0.399.

Consider `COc1ccc(C(=O)N2CCCC2=O)cc1` [Aniracetam], for which the log2 surviving fraction in experiment [1] (carboplatin co-treatment 0 µM) was 0.811; in experiment [1] (carboplatin co-treatment 5 µM) it was -0.427; in experiment [2] (carboplatin co-treatment 0 µM) it was -0.477; in experiment [2] (carboplatin co-treatment 5 µM), 1.23.

In the case of `CCCC(=O)[O-].[Na+]` [Sodium butyrate], the log2 surviving fraction in experiment [1] (carboplatin co-treatment 0 µM) was -0.0284; in experiment [1] (carboplatin co-treatment 5 µM), 1.19; in experiment [2] (carboplatin co-treatment 0 µM), 1.29; in experiment [2] (carboplatin co-treatment 5 µM), -0.257.

Regarding `C[C@H](Cc1cc2c(c(C(N)=O)c1)N(CCCO)CC2)NCCOc1ccccc1OCC(F)(F)F` [Silodosin (Rapaflo)], the log2 surviving fraction in experiment [1] (carboplatin co-treatment 0 µM) was 0.0425; in experiment [1] (carboplatin co-treatment 5 µM) it was -0.651; in experiment [2] (carboplatin co-treatment 0 µM), 0.441; in experiment [2] (carboplatin co-treatment 5 µM), -0.726.

As for `C[C@@H]1[C@H](O)[C@@H](C)/C=C/C=C/C=C/C=C/C=C/C=C/C=C/[C@H](O[C@@H]2O[C@H](C)[C@@H](O)[C@H](N)[C@@H]2O)C[C@@H]2O[C@](O)(C[C@@H](O)C[C@@H](O)[C@H](O)CC[C@@H](O)C[C@@H](O)CC(=O)O[C@H]1C)C[C@H](O)[C@H]2C(=O)O` [Amphotericin B (Abelcet)], the log2 surviving fraction in experiment [1] (carboplatin co-treatment 0 µM) was 0.851; in experiment [1] (carboplatin co-treatment 5 µM), 0.151; in experiment [2] (carboplatin co-treatment 0 µM) it was 0.568; in experiment [2] (carboplatin co-treatment 5 µM) it was -0.471.

For the compound `Cc1cc(NC(=O)C2=C(O)c3ccccc3S(=O)(=O)N2C)no1` [Isoxicam], the log2 surviving fraction in experiment [1] (carboplatin co-treatment 0 µM) is -0.302; in experiment [1] (carboplatin co-treatment 5 µM), -1.37; in experiment [2] (carboplatin co-treatment 0 µM) it was -0.541; in experiment [2] (carboplatin co-treatment 5 µM), 0.777.

`O=C1N=C(O)NC1(c1ccccc1)c1ccccc1` [Phenytoin sodium (Dilantin)]: the log2 surviving fraction was 0.0932 in experiment [1] (carboplatin co-treatment 0 µM), 0.809 in experiment [1] (carboplatin co-treatment 5 µM), 0.423 in experiment [2] (carboplatin co-treatment 0 µM) and 0.621 in experiment [2] (carboplatin co-treatment 5 µM).
